In PubChem BioAssay AID1508642 (National Center for Advancing Translational Sciences (NCATS), 2021):
In all, about 43,000 compounds went through this assay and about 200 (0.47%) were called active. The shares of active, inactive and inconclusive entries below differ from those in the screen. The call rests on the fitted dose curve; in most records, active means well fitted cell-killing curve with a large enough effect; inconclusive means small, poorly fitted or top-dose-only effect, or effect the other way; inactive means flat fitted curve, though single readings scatter. A potency beside an inconclusive call is a rough fit, not a confirmed value.

Experiment: Cell viability qHTS assay in S16 Pmp22-F2sN cells; further: nearly all actives have a fitted effect of over 65% in size
Conditions: S16 Pmp22-F2sN Schwann cells viability, CellTiter-Glo, 24 h; activity change, negative = cytotoxicity: at 57.5 µM (top of the series)
How it was run: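 Used to flag compounds lowering reporter output through toxicity, this quantitative HTS measures ATP-based CellTiter-Glo luminescence in S16 Pmp22-F2sN Schwann cells after 24 h compound exposure at 37C.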
On the % scale 0 is the no-effect control and ±100 the full control effect; potency means the concentration at half of the fitted maximal effect; tags describe the fitted curve by direction and shape.

Question: Which Potency does the source give for CN1CCN(C(=O)c2ccc3c(c2)N(Cc2ccc(C(F)(F)F)cc2)C(=O)c2ccccc2S3)CC1 here?
Answer: inconclusive: 39.8 µM [cytotoxic, single point]

Question: For Cc1ccc(-n2ncc(C(=O)NCc3ccc4c(c3)OCO4)c2C2CCN(C(=O)OC(C)(C)C)CC2)c(C)c1, which Potency is on record?
Answer: inconclusive: 35.5 µM [cytotoxic, single point]

Question: Which Potency does the source give for CC(=O)N1c2ccc(S(=O)(=O)Nc3ccc(C)c(Cl)c3)cc2CC1C (stereo not given) here?
Answer: inconclusive: 7.94 µM [cytotoxic, full curve, poor fit]

Question: With CCCCC(CC)CNC(=O)Cc1ccc(-n2c(=O)[nH]c3ccccc3c2=O)cc1 (stereo not given) as the molecule, how does the Potency read?
Answer: inconclusive: 39.8 µM [cytotoxic, single point]

Question: Which Potency does the source give for Cc1cc(Nc2ccc(F)cc2F)nc(-n2nc(C)cc2C)n1 here?
Answer: inconclusive: 1.26 µM [cytotoxic, single point]

Question: Which Potency does the source give for CC(CNC(=O)c1cnn(-c2ccc(F)cc2)c1-n1cccc1)c1ccccc1 (stereo not given) here?
Answer: inconclusive: 39.8 µM [cytotoxic, partial curve, poor fit]

Question: For Cc1cccc2nc(-c3ccccn3)c(Nc3ccc(F)cc3)n12, which Potency is on record?
Answer: inconclusive: 7.08 µM [cytotoxic, full curve]

Question: For Cc1cc(C)cc(N2C(=O)CSC23C(=O)N(Cc2c(F)cccc2Cl)c2ccccc23)c1 (stereo not given), which Potency is on record?
Answer: inconclusive: 10 µM [cytotoxic, partial curve, poor fit]

Question: For CSc1ccccc1-c1nnc(NC(=O)c2ccc3c(c2)OCCO3)o1, which Potency is on record?
Answer: inconclusive: 31.6 µM [cytotoxic, single point]

Question: Which Potency does the source give for COc1ccc(S(=O)(=O)NCc2cccn2Cc2cc(C)ccc2C)cc1OC here?
Answer: inconclusive: 39.8 µM [cytotoxic, single point]

Question: For O=C(NCCCN1CCN(c2ccccc2F)CC1)c1ccc2nc(CCc3ccccc3)oc2c1, which Potency is on record?
Answer: inconclusive: 39.8 µM [cytotoxic, single point]

Question: With CCc1ccccc1S(=O)(=O)Cc1ccc(C(=O)NCCc2ccc(Cl)cc2)o1 as the molecule, how does the Potency read?
Answer: inconclusive: 25.1 µM [cytotoxic, single point]

Question: For Cc1ccc(C)c(NC(=O)c2nc(S(=O)(=O)Cc3ccc(F)cc3)ncc2Cl)c1, which Potency is on record?
Answer: inconclusive: 5.01 µM [cytotoxic, full curve, poor fit]

Question: For Cc1ccc(C(=O)Nc2cc(-c3cn4cccnc4n3)ccc2C)cc1C, which Potency is on record?
Answer: inconclusive: 39.8 µM [rising, single point]

Question: For CC(C)CCNc1nc(Nc2ccccc2)c2cnn(C)c2n1, which Potency is on record?
Answer: inconclusive: 39.8 µM [cytotoxic, single point]

Question: With O=C(NCC(c1ccc2c(c1)OCO2)N1CCN(c2ccccc2)CC1)c1ccc(F)c(F)c1 (stereo not given) as the molecule, how does the Potency read?
Answer: inconclusive: 7.94 µM [cytotoxic, full curve, poor fit]

Question: Which Potency does the source give for CC(C)c1ccc(C2NC(=O)c3c(sc4c3CCN(C)C4)N2)cc1 (stereo not given) here?
Answer: inconclusive: 39.8 µM [cytotoxic, single point]

Question: For CC(=O)N1CCCC1c1nc2ccccc2n1Cc1cccc(C)c1 (stereo not given), which Potency is on record?
Answer: inactive

Question: Which Potency does the source give for O=S(=O)(NCC(c1ccccc1)N1CCc2ccccc21)c1ccc(Cl)cc1 (stereo not given) here?
Answer: inconclusive: 39.8 µM [cytotoxic, single point]

Question: With CCCCNC(=O)c1cnn2c(C)c(Cc3c(F)cccc3Cl)c(C)nc12 as the molecule, how does the Potency read?
Answer: inconclusive: 39.8 µM [rising, single point]

Question: With Cc1ccccc1Cn1c(CN2CCC(C(=O)NCCN(C)C)CC2)cc2ccccc21 as the molecule, how does the Potency read?
Answer: inconclusive: 25.1 µM [cytotoxic, single point]

Question: For COc1ccc(Cl)cc1NC(=O)c1ccc2c(c1)CCCN2S(C)(=O)=O, which Potency is on record?
Answer: inconclusive: 39.8 µM [cytotoxic, single point]

Question: With O=C(O)c1cc(-c2ccc(C(F)(F)F)cc2)nc2n[nH]c(-c3ccccc3)c12 as the molecule, how does the Potency read?
Answer: inactive

Question: With O=C(NCCSc1c(-c2ccccc2)[nH]c2ccccc12)c1ccc(S(=O)(=O)N2CCOCC2)cc1 as the molecule, how does the Potency read?
Answer: inactive

Question: Which Potency does the source give for CCN1CCN(c2cc(C)c3cc(NC(=O)c4cc(Cl)ccc4OC)ccc3n2)CC1 here?
Answer: inconclusive: 39.8 µM [cytotoxic, single point]

Question: For CCOC(=O)c1c(C)n(-c2ccccc2)c2ccc(OC(=O)c3ccccc3NC(=O)C(C)(C)C)cc12, which Potency is on record?
Answer: inconclusive: 39.8 µM [cytotoxic, single point]

Question: Which Potency does the source give for Cc1ccc(-n2ncc(C(=O)NCCCN3CCCCC3)c2C2CCN(C(=O)OC(C)(C)C)CC2)cc1 here?
Answer: inconclusive: 14.1 µM [cytotoxic, partial curve, poor fit]

Question: With Cc1ccc(OCC(O)Cn2c(=N)n(CCN3CCCCC3)c3ccccc32)cc1 (stereo not given) as the molecule, how does the Potency read?
Answer: inconclusive: 35.5 µM [cytotoxic, single point]

Question: With O=C1CN(C(=O)Nc2ccccc2C(F)(F)F)C(c2ccccc2)c2c(sc3c2CCCC3)N1 (stereo not given) as the molecule, how does the Potency read?
Answer: inconclusive: 35.5 µM [cytotoxic, partial curve, poor fit]

Question: Which Potency does the source give for CC(=O)c1ccc(NC(=O)Cn2nc(C(F)(F)F)c3c2CCCC3)cc1 here?
Answer: inconclusive: 6.31 µM [rising, partial curve, poor fit]

Question: With COc1ccc(-c2nc(SCC(=O)Nc3ccc4c(c3)OCCO4)c(-c3ccccc3)[nH]2)cc1 as the molecule, how does the Potency read?
Answer: inconclusive: 39.8 µM [cytotoxic, single point]

Question: Which activity change, negative = cytotoxicity does the source give for COC(=O)CC1Oc2ccc(C)cc2-n2cc(-c3ccc(C)cc3)nc21 (stereo not given) here?
Answer: inconclusive: 33.6%

Question: With CCOc1ccc2c(c1)c(=O)c(S(=O)(=O)c1ccc(Cl)cc1)cn2Cc1ccccc1C as the molecule, how does the Potency read?
Answer: inactive

Question: Which Potency does the source give for COc1ccc(NC(=O)c2ccc(NC(=O)CCS(=O)(=O)c3cccs3)cc2)cc1 here?
Answer: inactive

Question: For Cc1cc(C)c(S(=O)(=O)NCCc2csc3nc(-c4ccc(Cl)cc4)nn23)c(C)c1, which Potency is on record?
Answer: inconclusive: 35.5 µM [cytotoxic, single point]

Question: Which Potency does the source give for COc1ccc(CCN2C(=O)c3[nH]nc(-c4ccccc4O)c3C2c2ccccc2)cc1 (stereo not given) here?
Answer: inconclusive: 39.8 µM [cytotoxic, single point]

Question: Which Potency does the source give for CC(=O)N1CCc2cc(CNC(=O)Nc3ccc(Br)c(C)c3)ccc21 here?
Answer: inconclusive: 15.8 µM [cytotoxic, partial curve]

Question: For CCn1cc2nc(SCc3ccc(F)cc3)n(CCc3ccccc3)c(=O)c2n1, which Potency is on record?
Answer: inconclusive: 31.6 µM [cytotoxic, single point]

Question: For CCN(CCCNC(=O)c1ccc(Sc2ccc(Cl)cc2)c(NC(C)=O)c1)c1ccccc1, which Potency is on record?
Answer: inconclusive: 31.6 µM [cytotoxic, partial curve, poor fit]

Question: Which Potency does the source give for O=C(c1cccs1)N(Cc1cccnc1)c1nc2c(F)cc(F)cc2s1 here?
Answer: inconclusive: 31.6 µM [cytotoxic, single point]

Question: Which Potency does the source give for O=C(CSc1nnc(-c2cccc(F)c2)c(-c2cccc(F)c2)n1)NC1CCCCC1 here?
Answer: inconclusive: 22.4 µM [cytotoxic, single point]

Question: With COc1cc(Cl)c(C)cc1NC(=O)c1cnn(-c2ccc(F)cc2F)c1C1CCN(C(=O)OC(C)(C)C)CC1 as the molecule, how does the Potency read?
Answer: inconclusive: 39.8 µM [cytotoxic, partial curve, poor fit]

Question: With O=C1CCCc2cc(S(=O)(=O)NCC3CCC(C(=O)NCc4ccc(F)cc4)CC3)ccc2N1 (stereo not given) as the molecule, how does the Potency read?
Answer: inconclusive: 22.4 µM [cytotoxic, partial curve]

Question: Which Potency does the source give for CCN1CCc2nc3sc(C(=O)Nc4cccc(Cl)c4C)c(N)c3cc2C1 here?
Answer: inconclusive: 15.8 µM [cytotoxic, partial curve]

Question: Which Potency does the source give for CN(C)c1ccc(C(CNC(=O)c2ccccc2)N2CCc3ccccc32)cc1 (stereo not given) here?
Answer: inconclusive: 39.8 µM [cytotoxic, single point]

Question: For CCC1=Nc2cc(C(=O)NCCCOC)ccc2Sc2ccc(Br)cc21, which Potency is on record?
Answer: inactive

Question: For CC(C)CC(=O)Nc1cccc(-c2nc3ccccc3[nH]2)c1, which Potency is on record?
Answer: inconclusive: 4.47 µM [rising, full curve, poor fit]

Question: With CCOC(=O)C1CCN(S(=O)(=O)c2cc(Br)cc3c2N(C(=O)CC)CC3)CC1 as the molecule, how does the Potency read?
Answer: inactive

Question: For O=C(Cn1c(SCC(=O)Nc2ccc(F)cc2)nc2ccccc21)NCc1ccc(F)cc1, which Potency is on record?
Answer: inconclusive: 39.8 µM [cytotoxic, single point]

Question: With CN1C(=O)c2ccccc2Sc2ccc(NC(=O)Nc3ccccc3F)cc21 as the molecule, how does the Potency read?
Answer: inactive

Question: For Cc1ccc(NC(=O)c2c(Nc3ccccc3C)sc(C(=O)c3ccccc3)c2N)cc1, which Potency is on record?
Answer: inconclusive: 39.8 µM [cytotoxic, single point]

Question: With CCc1ccc(-n2nc(C)c3c(C(=O)Nc4cccc(C(F)(F)F)c4)cc(C)nc32)cc1 as the molecule, how does the Potency read?
Answer: inconclusive: 31.6 µM [cytotoxic, single point]

Question: Which Potency does the source give for CCOc1ccccc1NC(=O)c1c(C)cc(C)nc1SCC(=O)c1cccc(OC)c1 here?
Answer: inconclusive: 39.8 µM [cytotoxic, partial curve, poor fit]

Question: Which Potency does the source give for Cc1cccc(C)c1Nc1c(-c2ccsc2)nc2ccccn12 here?
Answer: inconclusive: 25.1 µM [cytotoxic, single point]

Question: With COc1ccccc1-c1nc(S(=O)(=O)c2ccc(Cl)cc2)c(N2CCCCCC2)o1 as the molecule, how does the Potency read?
Answer: inconclusive: 15.8 µM [rising, partial curve, poor fit]

Question: With CCc1ccc(-c2nn(CC(=O)NC3CCCC3)c3c2cnc2ccc(C)cc23)cc1 as the molecule, how does the Potency read?
Answer: inactive

Question: For O=C(Nc1ccc(N2CCC(N3CCCCC3)CC2)c(C(=O)O)c1)c1ccc(Br)cc1, which Potency is on record?
Answer: inconclusive: 39.8 µM [rising, single point]

Question: For CCC(Cc1ccccc1)NC(=O)c1ccc2nc(N3CCC(C)CC3)sc2c1 (stereo not given), which Potency is on record?
Answer: inactive

Question: Which Potency does the source give for COc1cc(C2CC(=O)Nc3c2c(=O)[nH]c2nc4ccccc4n32)ccc1O (stereo not given) here?
Answer: inactive

Question: With Cc1ccc2c(c1)cc(C(=O)Nc1ccccc1C)n2C as the molecule, how does the Potency read?
Answer: inconclusive: 2 µM [cytotoxic, full curve]
